# Experimental data published in the supplement of paper PMC12423691.
# The list shows a part of the results. Binding of human transcription factors and regulators to the viral nucleoprotein by AlphaScreen, crude cell-free proteins, amounts not normalised, one pass. Fold of the Venus control; higher = more signal. No active / inactive call. Single-pass screen; sequences are the whole Swiss-Prot entries looked up by name.
# B1: NR4A3, Q92570 (protein)
# chain: MPCVQAQYSPSPPGSSYAAQTYSSEYTTEIMNPDYTKLTMDLGSTEITATATTSLPSISTFVEGYSSNYELKPSCVYQMQRPLIKVEEGRAPSYHHHHHHHHHHHHHHQQQHQQPSIPPASSPEDEVLPSTSMYFKQSPPSTPTTPAFPPQAGALWDEALPSAPGCIAPGPLLDPPMKAVPTVAGARFPLFHFKPSPPHPPAPSPAGGHHLGYDPTAAAALSLPLGAAAAAGSQAAALESHPYGLPLAKRAAPLAFPPLGLTPSPTASSLLGESPSLPSPPSRSSSSGEGTCAVCGDNAACQHYGVRTCEGCKGFFKRTVQKNAKYVCLANKNCPVDKRRRNRCQYCRFQKCLSVGMVKEVVRTDSLKGRRGRLPSKPKSPLQQEPSQPSPPSPPICMMNALVRALTDSTPRDLDYSRYCPTDQAAAGTDAEHVQQFYNLLTASIDVSRSWAEKIPGFTDLPKEDQTLLIESAFLELFVLRLSIRSNTAEDKFVFCNGLVLHRLQCLRGFGEWLDSIKDFSLNLQSLNLDIQALACLSALSMITERHGLKEPKRVEELCNKITSSLKDHQSKGQALEPTESKVLGALVELRKICTLGLQRIFYLKLEDLVSPPSIIDKLFLDTLPF
# B2: ZNF586, Q9NXT0 (protein)
# chain: MAAAAALRAPAQSSVTFEDVAVNFSLEEWSLLNEAQRCLYRDVMLETLTLISSLGCWHGGEDEAAPSKQSTCIHIYKDQGGHSGERPYECGEYRKLFKNKSCLTEPRRDHKHRNVRTGERPYECSKYGKLFHQKPTLHIHERFHTGQKTYECSECGKSFHQSSSLLQRQTLHTRERPYECIECGKAFAEKSSLINHRKVHSGAKRYECNECGKSFAYTSSLIKHRRIHTGERPYECSECGRSFAENSSLIKHLRVHTGERPYECVECGKSFRRSSSLLQHQRVHTRERPYECSECGKSFSLRSNLIHHQRVHTGERHECGQCGKSFSRKSSLIIHLRVHTGERPYECSDCGKSFAENSSLIKHLRVHTGERPYECIDCGKSFRHSSSFRRHQRVHTGMRPYK
# B3: ZNF217, O75362 (protein)
# chain: MQSKVTGNMPTQSLLMYMDGPEVIGSSLGSPMEMEDALSMKGTAVVPFRATQEKNVIQIEGYMPLDCMFCSQTFTHSEDLNKHVLMQHRPTLCEPAVLRVEAEYLSPLDKSQVRTEPPKEKNCKENEFSCEVCGQTFRVAFDVEIHMRTHKDSFTYGCNMCGRRFKEPWFLKNHMRTHNGKSGARSKLQQGLESSPATINEVVQVHAAESISSPYKICMVCGFLFPNKESLIEHRKVHTKKTAFGTSSAQTDSPQGGMPSSREDFLQLFNLRPKSHPETGKKPVRCIPQLDPFTTFQAWQLATKGKVAICQEVKESGQEGSTDNDDSSSEKELGETNKGSCAGLSQEKEKCKHSHGEAPSVDADPKLPSSKEKPTHCSECGKAFRTYHQLVLHSRVHKKDRRAGAESPTMSVDGRQPGTCSPDLAAPLDENGAVDRGEGGSEDGSEDGLPEGIHLDKNDDGGKIKHLTSSRECSYCGKFFRSNYYLNIHLRTHTGEKPYKCEFCEYAAAQKTSLRYHLERHHKEKQTDVAAEVKNDGKNQDTEDALLTADSAQTKNLKRFFDGAKDVTGSPPAKQLKEMPSVFQNVLGSAVLSPAHKDTQDFHKNAADDSADKVNKNPTPAYLDLLKKRSAVETQANNLICRTKADVTPPPDGSTTHNLEVSPKEKQTETAADCRYRPSVDCHEKPLNLSVGALHNCPAISLSKSLIPSITCPFCTFKTFYPEVLMMHQRLEHKYNPDVHKNCRNKSLLRSRRTGCPPALLGKDVPPLSSFCKPKPKSAFPAQSKSLPSAKGKQSPPGPGKAPLTSGIDSSTLAPSNLKSHRPQQNVGVQGAATRQQQSEMFPKTSVSPAPDKTKRPETKLKPLPVAPSQPTLGSSNINGSIDYPAKNDSPWAPPGRDYFCNRSASNTAAEFGEPLPKRLKSSVVALDVDQPGANYRRGYDLPKYHMVRGITSLLPQDCVYPSQALPPKPRFLSSSEVDSPNVLTVQKPYGGSGPLYTCVPAGSPASSSTLEGKRPVSYQHLSNSMAQKRNYENFIGNAHYRPNDKKT
# B4: MEF2A, Q02078 (protein)
# chain: MGRKKIQITRIMDERNRQVTFTKRKFGLMKKAYELSVLCDCEIALIIFNSSNKLFQYASTDMDKVLLKYTEYNEPHESRTNSDIVEALNKKEHRGCDSPDPDTSYVLTPHTEEKYKKINEEFDNMMRNHKIAPGLPPQNFSMSVTVPVTSPNALSYTNPGSSLVSPSLAASSTLTDSSMLSPPQTTLHRNVSPGAPQRPPSTGNAGGMLSTTDLTVPNGAGSSPVGNGFVNSRASPNLIGATGANSLGKVMPTKSPPPPGGGNLGMNSRKPDLRVVIPPSSKGMMPPLSEEEELELNTQRISSSQATQPLATPVVSVTTPSLPPQGLVYSAMPTAYNTDYSLTSADLSALQGFNSPGMLSLGQVSAWQQHHLGQAALSSLVAGGQLSQGSNLSINTNQNISIKSEPISPPRDRMTPSGFQQQQQQQQQQQPPPPPQPQPQPPQPQPRQEMGRSPVDSLSSSSSSYDGSDREDPRGDFHSPIVLGRPPNTEDRESPSVKRMRMDAWVT
# B5: GLIS2, Q9BZE0 (protein)
# chain: MHSLDEPLDLKLSITKLRAAREKRERTLGVVRPRALHRELGLVDDSPTPGSPGSPPSGFLLNSKFPEKVEGRFSAAPLVDLSLSPPSGLDSPNGSSSLSPERQGNGDLPPVPSASDFQPLRYLDGVPSSFQFFLPLGSGGALHLPASSFLTPPKDKCLSPDLPLPKQLVCRWAKCNQLFELLQDLVDHVNDYHVKPEKDAGYCCHWEGCARHGRGFNARYKMLIHIRTHTNEKPHRCPTCSKSFSRLENLKIHNRSHTGEKPYVCPYEGCNKRYSNSSDRFKHTRTHYVDKPYYCKMPGCHKRYTDPSSLRKHIKAHGHFVSHEQQELLQLRPPPKPPLPAPDGGPYVSGAQIIIPNPAALFGGPGLPGLPLPLAPGPLDLSALACGNGGGSGGGGGMGPGLPGPVLPLNLAKNPLLPSPFGAGGLGLPVVSLLAGAAGGKAEGEKGRGSVPTRALGMEGHKTPLERTESSCSRPSPDGLPLLPGTVLDLSTGVNSAASSPEALAPGWVVIPPGSVLLKPAVVN
# Molecular target: nucleoprotein N of Crimean-Congo hemorrhagic fever virus
# Assay: AlphaScreen luminescence signal relative to Venus negative control (fold); higher = stronger binding to CCHFV N
# Description: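 AlphaScreen binding of cell-free made, FLAG-GST-tagged human transcription factors and regulators (crude translation products) to biotinylated N protein; signal as fold of the FLAG-GST-Venus control. One pass.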
row,Binder,AlphaScreen luminescence signal
1,B1,7.3
2,B2,2
3,B3,2.47
4,B4,2
5,B5,1.77
